Assay results reported in patent US20090143279A1 (priority 2007, published 2009).

Tested on: cellular ATP levels
Settings: for ATP (composite Z-score): normalized score vs mock-treated (DMSO) wells
[1] = composite Z-score vs DMSO, Conc 20 μM
[2] = composite Z-score vs mock-treated (DMSO) wells, Conc 20 μM
[3] = normalized composite Z-score vs mock-treated (DMSO) wells, Conc 20 μM
[4] = 20 μM, composite Z-score vs DMSO

## CC(=O)O[C@H]1CC[C@@]2(C)[C@H](CC[C@@H]3[C@@H]2CC[C@]2(C)[C@@H](C4=CC(=O)OC4)[C@@H](OC(C)=O)C[C@]32O)C1 [gitoxigenin diacetate]
[1]
  ATP: 1.895

## CC(C)(C)NCC(O)c1cc(Cl)c(N)c(Cl)c1 (stereo not shown) [clenbuterol]
14.44 μM, composite Z-score vs DMSO
  ATP: −0.416

## [H]/N=C(/N)NS(=O)(=O)c1ccc(N)cc1 [sulfaguanidine]
Composite Z-score vs DMSO wells, Conc 20 μM
  ATP: −0.667

## COc1ccc(-c2coc3c(OC)c(OC)cc(OC)c3c2=O)cc1 [isotectorigenin trimethyl ether]
[2]
  ATP: −0.305

## C[C@H](CCC(=O)O)[C@H]1CC[C@H]2[C@@H]3CC[C@H]4C[C@H](O)CC[C@]4(C)[C@H]3C[C@H](O)[C@]12C [allodeoxycholic acid]
[1]
  ATP: −1.212

## CCCCCC(=O)Cc1cc(O)cc(O)c1C(=O)Oc1cc(CC(=O)CCCCC)c(C(=O)O)c(OC)c1 [arthonioic acid]
[1]
  ATP: −0.458

## Cc1ccc2c(c1)CC[C@H]1CC(=O)CC[C@]21C
[2]
  ATP: −0.267

## CC(=O)Nc1c(I)cc(I)c(C(=O)O)c1I [acetriazoic acid]
[1]
  ATP: −0.024

## CC(=O)Oc1cc(OC(C)=O)c2c(c1)O[C@H](c1ccc(OC(C)=O)c(OC(C)=O)c1)[C@@H](OC(C)=O)C2 [catechin pentaacetate]
[3]
  ATP: 1.098

## CC(C)(C)NCC(O)c1ccccc1Cl (stereo not shown) [tulobuterol]
[4]
  ATP: −0.653

## Cc1c(O)c(O)cc2c1CC=C1[C@@]2(C)CC[C@@]2(C)[C@@H]3C[C@](C)(C(=O)O)CC[C@]3(C)CC[C@]12C [Dihydrocelastrol, reference compound]
[3]
  ATP: −2.447

## C/C1=C\CC(C)(C)/C=C/CC2(C)OC2CC1 (stereo not shown) [epoxy (1,11)humulene]
Conc 20 μM
  ATP (composite Z-score): 0.320

## CCOC(=O)[C@H](CCc1ccccc1)N[C@@H](C)C(=O)N1Cc2ccccc2C[C@H]1C(=O)O [quinapril]
[4]
  ATP: 0.434

## C[C@]12CCC3C(CC[C@H]4C[C@H](O)CC[C@]34C)C1CC[C@@H]2O (stereo partly shown) [epiandrostanediol]
[1]
  ATP: 1.132

## C=C[C@H]1C[N@@]2CC[C@H]1C[C@@H]2[C@@H](O)c1ccnc2ccc(OC)cc12 [quinidine]
[1]
  ATP: 0.901

## C=C/C(C)=C\CC1C(C)(O)CCC2C(C)(C)CCCC21C (stereo not shown) [abienol]
[3]
  ATP: 1.677

## COc1ccc2c(=O)c(OC)c(-c3ccccc3)oc2c1 [3,7-dimethoxyflavone]
[3]
  ATP: 1.027

## CC[C@@H](C)C(=O)O[C@H]1[C@H](O)[C@H]2[C@@H](CN3C[C@@H](C)CC[C@H]3[C@@]2(C)O)[C@@H]2C[C@]34O[C@]5(O)[C@@H](OC(=O)[C@](C)(O)[C@@H](C)O)CC[C@@]3(C)[C@@H]5[C@@H](OC(C)=O)[C@@H](OC(C)=O)[C@H]4[C@@]21O (stereo in doubt) [protoveratrine B]
[1]
  ATP: 0.029

## CN(C)C(=S)SSC(=S)N(C)C [thiram]
[4]
  ATP: −8.121

## O=C(C=C(O)c1ccccc1)c1ccccc1O [2′,beta-dihydroxychalcone]
[1]
  ATP: −0.920

## CC(=O)C1=C(O)[C@@H]2[C@H]3c4c[nH]c5cccc(c45)C[C@H]3C(C)(C)N2C1=O [cyclopiazonic acid]
[1]
  ATP: −0.353

## CC(COc1ccccc1)N(CCCl)Cc1ccccc1 (stereo not shown) [phenoxybenzamine]
13.16 μM, composite Z-score vs DMSO
  ATP: 0.878
[4]
  ATP: 0.340

## COc1cc(-c2coc3cc(OCc4ccccc4)c(OC)c(O)c3c2=O)cc(O)c1OC [irigenin, 7-benzyl ether]
[2]
  ATP: −0.373

## C[C@@H]1CC[C@H]2[C@](C)(CO)[C@@H](O)CC[C@]2(C)[C@@]12CC[C@@](CO)(CCO)O2 [lagochilin]
Conc 20 μM
  ATP (composite Z-score): −0.029

## C/C=C(\C)C(=O)O[C@H]1C[C@@H](OC(C)=O)[C@@]2(C(=O)OC)CO[C@H]3[C@@H](O)[C@@](C)([C@]45O[C@@]4(C)[C@H]4C[C@@H]5O[C@@H]5OC=C[C@@]54O)[C@H]4[C@]1(CO[C@]4(O)C(=O)OC)[C@@H]32 [azadirachtin]
[1]
  ATP: 0.299

## O=c1c(O)cccc2c([C@H]3Oc4cc(O)cc(O)c4C[C@H]3O)cc(O)c(O)c12 [theaflavanin]
Conc 20 μM
  ATP (composite Z-score): 1.006

## C[C@@H](N)[C@@H](O)c1ccccc1 [1S,2R-phenylpropanolamine]
  ATP: −0.204

Read-outs that look alike come from different tables or passages of the source.
